# For some of these results: Shown are results outside the selection of hits, which stands elsewhere. Only a part is listed here, and it is no random draw. Inconclusive results are not listed. Activity calls are given as the source filed them. How the source made its calls, unless noted: active means hit-call score of the fitted dose curve at least 0.9, where 1 is the maximum; inactive means score below 0.9.
# How the values were obtained:
# [1] = target: human Thyroid Receptor alpha (THRa1), THRA (gene 7067) (UniProt P10827); assay: ATG_THRa1_TRANS: Attagene TRANS-FACTORIAL HepG2 Assay for human Thyroid Receptor alpha (THRa1) (AID 2283014; active means hit-call score of the fitted dose curve at least 0.9, where 1 is the maximum)
# Chain of UniProt P10827 (P10827 whole entry, looked up, the tested form may be a part): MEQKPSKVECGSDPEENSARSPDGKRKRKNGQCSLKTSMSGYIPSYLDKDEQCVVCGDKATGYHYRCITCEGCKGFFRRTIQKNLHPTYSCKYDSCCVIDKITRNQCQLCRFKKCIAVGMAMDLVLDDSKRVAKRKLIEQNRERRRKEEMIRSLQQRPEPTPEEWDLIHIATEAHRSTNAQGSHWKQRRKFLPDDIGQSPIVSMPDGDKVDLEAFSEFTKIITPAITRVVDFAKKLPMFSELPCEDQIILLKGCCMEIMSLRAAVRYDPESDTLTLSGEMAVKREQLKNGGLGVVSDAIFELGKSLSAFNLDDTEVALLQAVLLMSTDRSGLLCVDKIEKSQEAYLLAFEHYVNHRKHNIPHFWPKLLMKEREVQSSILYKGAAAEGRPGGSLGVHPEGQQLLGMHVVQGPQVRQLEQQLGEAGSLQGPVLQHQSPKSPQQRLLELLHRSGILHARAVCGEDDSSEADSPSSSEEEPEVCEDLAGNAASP
# Method in brief: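 First, HepG2 cells receive multiple GAL4-UAS reporter units and the chimeric receptor. They are then dosed for 24 h, after which RNA is reverse-transcribed, amplified, labelled, HpaI-cut and sized by capillary electrophoresis; gain relative to DMSO is scored.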
# [2] = target: human Vitamin D Receptor (VDR), VDR (gene 7421) (UniProt P11473); assay: ATG_VDR_TRANS: Attagene TRANS-FACTORIAL HepG2 Assay for human Vitamin D Receptor (VDR) (AID 2283022; active means hit-call score of the fitted dose curve at least 0.9, where 1 is the maximum)
# Chain of UniProt P11473 (P11473 whole entry, looked up, the tested form may be a part): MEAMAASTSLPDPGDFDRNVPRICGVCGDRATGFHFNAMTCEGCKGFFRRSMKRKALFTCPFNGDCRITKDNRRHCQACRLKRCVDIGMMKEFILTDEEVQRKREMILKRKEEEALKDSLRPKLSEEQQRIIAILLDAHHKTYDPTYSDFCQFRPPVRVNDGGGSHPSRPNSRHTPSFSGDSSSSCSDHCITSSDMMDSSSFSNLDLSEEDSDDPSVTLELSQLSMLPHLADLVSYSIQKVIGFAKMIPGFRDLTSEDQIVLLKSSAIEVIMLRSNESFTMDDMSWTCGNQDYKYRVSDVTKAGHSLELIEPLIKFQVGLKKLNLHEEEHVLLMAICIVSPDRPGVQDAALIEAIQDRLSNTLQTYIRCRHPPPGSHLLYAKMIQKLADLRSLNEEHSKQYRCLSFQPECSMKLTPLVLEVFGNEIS
# Method in brief: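 Fluorescence of labelled reporter cDNA fragments, resolved by capillary electrophoresis, gives mRNA induction after 24 h treatment of HepG2 cells carrying transfected Gal4-fusion reporter units. Activity is fitted in the positive direction with DMSO as baseline.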
# [3] = CEETOX_H295R_OHPROG: CeeTox H295R High-throughput Steroidogenesis Assay for OH-Progesterone (OHPROG) (AID 2283435); settings: actives raise or lower the signal
# Protocol: CEETOX_H295R is a cell-based, multiplexed-readout assay that uses H295R, a human adrenal gland cell line, with measurements taken at 48 hours after chemical dosing in a 96-well plate.CEETOX_H295R_OHPROG is one of 23 assay component(s) measured or calculated from the CEETOX_H295R assay. It is designed to make measurements of hormone induction, a form of inducible reporter, as detected with absorbance signals by HPLC-MS-MS technology.Data from the assay component CEETOX_H295R_OHPROG was analyzed into 1 assay endpoint. This assay endpoint, CEETOX_H295R_OHPROG, was analyzed with bidirectional fitting relative to DMSO as the negative control and baseline of activity. Using a type of inducible reporter, gain or loss-of-signal activity using HPLC-MS-MS was used to understand synthesis of 17alpha-hydroxyprogesterone in H295R cell line at 48hr of chemical exposure. To generalize the intended target to other relatable targets, this assay endpoint is annotated to the steroid hormone intended target family, where the subfamily is progestagens.
# Cell culture and media preparation procedures were conducted in accordance with OECD Test No. 456 guidelines, with minor modifications. H295R cells (ATCC CRL-2128) were expanded for 5 passages and frozen in batches in liquid nitrogen. Prior to the steroidogenesis assay, H295R cells were thawed and passed at least 4 times. The maximum passage was 10. Cells were maintained in a 1:1 mixture of DMEM/F12 supplemented with 5ml/L ITS+ Premix (BD Bioscience) and 12.5 ml/L Nu-Serum (BD Bioscience). After seeding cells into 96-well plates at 50-60% confluency, cells were allowed to adhere overnight. Prior to chemical testing, culture medium was replaced with 175 uL medium containing 10 uM forskolin to stimulate steroidogenesis for 48 hours. Following prestimulation, forskolin medium was replaced with medium containing test chemical solubilized in DMSO (ensuring a final concentration of 0.1% DMSO). Test chemicals were incubated for 48 hours, then the medium was removed and split into 2 vials containing approximately 75uL each, and stored at -80 C prior to hormone analysis. For steroid quantification, media samples were shipped to OpAns, LLC (Durham, NC) on dry ice, and samples were thawed to room temperature prior to liquid-liquid extraction. Steroid hormones were extracted from media samples using methyl tertbutyl ether (MTBE). An extra derivatization with dansyl chloride was included for estrogen (estrone and estradiol) detection only. Steroid hormones were separated by HPLC, eluted using a reverse phase C18 gradient with electrospray positive ionization, followed by quantification by tandem mass spectrometry (MS/MS). Data were acquired on a MassHunter Workstation Acquisition version B03.01 (Agilent Technologies, Inc.) and processed using MassHunter Quantitative Analysis for QQQ. Accuracy was determined for each hormone analyte from 3 standards to determine upper and lower limits of quantification (ULOQ and LLOQ, respectively) using a 7-point standard curve. Precision and accuracy of the extraction and quantification methods were calculated as the percent relative standard deviation (%RSD) of the spiked standards and percent spiked standard recovered, respectively. The goal was to achieve 100% accuracy (i.e., recover all spiked-in standard at quantification with minimal loss during run time) and good precision (i.e., have %RSD <15% to ensure reproducibility). Test medium was removed following chemical exposure, and cell viability was evaluated in the same wells by MTT. MTT procedures were as follows: after removal of test medium, 500 uL of 0.5 mg/ml of 3-[4,5-dimethylthiazol-2-y]2,5-diphenyltetrazoliumbromide solution was added to the cells. Following a 4-hour incubation at 37 C and 5% CO2 to allow formazan-crystal formation, the MTT solution was removed and blue formazan salt crystals were solubilized using 500uL anhydrous isopropanol with shaking for 20 minutes. […]
# [4] = CEETOX_H295R_CORTISOL: CeeTox H295R High-throughput Steroidogenesis Assay for Cortisol (AID 2283438); settings: actives raise or lower the signal;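 further: cortisol secreted into medium quantified by LC-MS/MS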
# Method in brief: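 Cortisol synthesis by H295R cells is measured 48 h after chemical dosing, following a 48 h stimulation with 10 uM forskolin. Hormone is extracted and quantified by HPLC-MS/MS, and activity is fitted bidirectionally against the DMSO control.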
# [5] = CEETOX_H295R_PROG: CeeTox H295R High-throughput Steroidogenesis Assay for Progesterone (PROG) (AID 2283442); settings: actives raise or lower the signal
# Method in brief: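 Adrenal H295R line, forskolin-stimulated (10 uM, 48 h) before dosing. 48 h exposure, 0.1% DMSO vehicle. Secreted progesterone by reverse-phase HPLC with ESI+ MS/MS quantification; DMSO-normalised bidirectional curve fit.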
# [6] = ATG_XTT_Cytotoxicity: Cytotoxicity Assessment in the Attagene TRANS-FACTORIAL HepG2 Assay (AID 2283584; active means hit-call score of the fitted dose curve at least 0.9, where 1 is the maximum)
# Method in brief: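 Transfect HepG2 with GAL4-UAS reporter units, dose compound, incubate 24 h, then measure viable cell number by XTT. Fit concentration response against DMSO baseline.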
# [7] = BSK_3C_SRB: Viability Assessment in the BioMAP Diversity Plus: 3C Assay (AID 2283023); settings: primary human endothelial cells (HUVEC);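 further: cells read 24 h after compound dosing; fitted both ways against DMSO so a hit may be signal rise or drop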
# Method in brief: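 Cells were dosed with chemical, cultured 24 h, fixed with 10% TCA, stained with 0.1% SRB and read at 560 nm. Human umbilical vein endothelium was used; DMSO served as negative control and baseline.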
# [8] = read-out: Fatty acid synthase (Homo sapiens) (UniProt P49327); assay: LTEA_HepaRG_FASN: Life Technologies and Expression Analysis (LTEA) Assay for Fatty Acid Synthase (FASN) using HepaRG (AID 2283448); settings: actives raise or lower the signal; mRNA level, 48 h
# Chain of UniProt P49327 (P49327 whole entry, looked up): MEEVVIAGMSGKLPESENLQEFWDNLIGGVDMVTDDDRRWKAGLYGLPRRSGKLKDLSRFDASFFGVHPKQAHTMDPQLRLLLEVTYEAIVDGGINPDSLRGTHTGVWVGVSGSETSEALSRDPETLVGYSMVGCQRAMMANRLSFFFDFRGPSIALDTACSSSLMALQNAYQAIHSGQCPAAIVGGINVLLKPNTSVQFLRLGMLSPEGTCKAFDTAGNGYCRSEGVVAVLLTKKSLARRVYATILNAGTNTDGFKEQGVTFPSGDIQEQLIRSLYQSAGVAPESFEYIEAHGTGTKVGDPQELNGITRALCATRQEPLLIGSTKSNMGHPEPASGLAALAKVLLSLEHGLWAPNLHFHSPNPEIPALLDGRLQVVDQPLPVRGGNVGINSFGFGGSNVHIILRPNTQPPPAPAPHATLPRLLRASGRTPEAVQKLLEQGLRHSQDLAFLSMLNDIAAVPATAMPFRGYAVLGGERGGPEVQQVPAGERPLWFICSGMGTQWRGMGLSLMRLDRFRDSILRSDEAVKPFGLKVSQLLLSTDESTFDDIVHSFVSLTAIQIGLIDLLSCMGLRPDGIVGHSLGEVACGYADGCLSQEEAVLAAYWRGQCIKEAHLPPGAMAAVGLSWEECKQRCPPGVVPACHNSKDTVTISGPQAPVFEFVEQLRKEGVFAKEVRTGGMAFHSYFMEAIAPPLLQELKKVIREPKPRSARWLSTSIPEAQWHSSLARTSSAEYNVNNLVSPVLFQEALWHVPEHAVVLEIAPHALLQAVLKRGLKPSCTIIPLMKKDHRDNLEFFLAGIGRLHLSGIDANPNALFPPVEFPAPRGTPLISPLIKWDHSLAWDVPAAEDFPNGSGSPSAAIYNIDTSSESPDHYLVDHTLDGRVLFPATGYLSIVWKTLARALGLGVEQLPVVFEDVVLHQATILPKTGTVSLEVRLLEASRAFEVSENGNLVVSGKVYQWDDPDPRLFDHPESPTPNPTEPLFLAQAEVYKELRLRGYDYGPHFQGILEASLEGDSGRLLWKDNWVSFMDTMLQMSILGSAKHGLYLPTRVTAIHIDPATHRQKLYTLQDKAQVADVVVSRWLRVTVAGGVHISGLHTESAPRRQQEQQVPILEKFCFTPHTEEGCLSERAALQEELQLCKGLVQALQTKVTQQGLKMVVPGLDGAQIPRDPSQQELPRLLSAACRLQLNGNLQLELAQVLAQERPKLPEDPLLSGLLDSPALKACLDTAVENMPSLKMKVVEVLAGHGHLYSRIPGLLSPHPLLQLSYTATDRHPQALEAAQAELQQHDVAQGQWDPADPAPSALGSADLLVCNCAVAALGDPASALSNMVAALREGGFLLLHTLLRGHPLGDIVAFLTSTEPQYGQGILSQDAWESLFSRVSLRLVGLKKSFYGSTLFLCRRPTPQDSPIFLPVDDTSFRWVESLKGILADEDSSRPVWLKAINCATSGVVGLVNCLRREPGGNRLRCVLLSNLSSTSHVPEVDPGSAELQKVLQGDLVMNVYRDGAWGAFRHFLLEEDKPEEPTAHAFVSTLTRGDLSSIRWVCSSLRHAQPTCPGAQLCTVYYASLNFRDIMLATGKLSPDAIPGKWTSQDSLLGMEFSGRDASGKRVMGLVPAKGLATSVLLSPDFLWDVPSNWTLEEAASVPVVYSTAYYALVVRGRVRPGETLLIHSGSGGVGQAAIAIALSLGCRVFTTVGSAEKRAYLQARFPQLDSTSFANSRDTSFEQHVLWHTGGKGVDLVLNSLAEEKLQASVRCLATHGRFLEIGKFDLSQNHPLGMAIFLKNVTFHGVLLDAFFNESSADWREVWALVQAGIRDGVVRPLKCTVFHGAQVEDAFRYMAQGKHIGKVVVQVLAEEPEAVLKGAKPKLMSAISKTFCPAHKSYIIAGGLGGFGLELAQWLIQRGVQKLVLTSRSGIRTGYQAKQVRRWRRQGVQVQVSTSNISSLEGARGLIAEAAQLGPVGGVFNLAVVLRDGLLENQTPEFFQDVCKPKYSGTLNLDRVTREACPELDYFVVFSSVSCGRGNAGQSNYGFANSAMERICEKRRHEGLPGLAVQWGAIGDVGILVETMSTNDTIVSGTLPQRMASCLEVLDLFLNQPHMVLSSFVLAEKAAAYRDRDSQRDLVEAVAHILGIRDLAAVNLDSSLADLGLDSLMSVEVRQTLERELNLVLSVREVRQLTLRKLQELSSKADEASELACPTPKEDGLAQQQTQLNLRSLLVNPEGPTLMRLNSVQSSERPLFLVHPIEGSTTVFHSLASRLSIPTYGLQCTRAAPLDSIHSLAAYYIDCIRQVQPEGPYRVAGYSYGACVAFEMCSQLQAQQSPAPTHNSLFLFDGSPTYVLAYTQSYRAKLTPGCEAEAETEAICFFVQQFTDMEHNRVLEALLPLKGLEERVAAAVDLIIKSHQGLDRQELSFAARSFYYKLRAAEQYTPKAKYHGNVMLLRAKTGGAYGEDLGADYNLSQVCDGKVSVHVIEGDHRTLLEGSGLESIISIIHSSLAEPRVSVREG
# Method in brief: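 Cells were plated, cultured 48 h, switched to serum-free induction medium, then dosed in duplicate (max 100 uM, half-log dilutions, 0.5% DMSO) for 48 h. RNA was then isolated and FASN quantified by qRT-PCR.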
# [9] = read-out: Human Leukocyte Antigen - DR isotype (HLADR), HLA-DRA (gene 3122); assay: BSK_3C_HLADR: BioMAP Diversity Plus: 3C Assay for Human Leukocyte Antigen - DR isotype (HLADR) Biomarker Activity (AID 2283019); settings: actives raise or lower the signal; primary human endothelial cells (HUVEC)
# Method in brief: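 Endothelial cells from human umbilical vein are treated with test chemical; after 24 h, HLA-DR levels are measured by ELISA. Data are fitted in both directions using DMSO as the baseline.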
# [10] = read-out: Macrophage colony-stimulating factor (MCSF), CSF1 (gene 1435); assay: BSK_hDFCGF_MCSF: BioMAP Diversity Plus: hDFCGF Assay for Macrophage colony-stimulating factor (MCSF) Biomarker Activity (AID 2283060); settings: actives raise or lower the signal; primary human foreskin fibroblasts
# Method in brief: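 M-CSF levels, determined by ELISA, are taken at 24 h after dosing human skin fibroblasts. Responses in either direction are fitted with DMSO serving as the baseline.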
structure (smiles),measurement,setting,value
Cc1ccc(N)cc1N,outcome,[1],inactive
same,outcome,[2],inactive
same,outcome,[3],inactive
same,outcome,[4],inactive
same,outcome,[5],inactive
same,outcome,[6],inactive
COP(=S)(OC)Oc1ccc(SC)c(C)c1,AC50,[7],active: 20 µM
same,outcome,[8],inactive
CC(=O)C(Cl)C(=O)N(C)C (stereo not given),AC50,[9],active: 26.2 µM
same,AC50,[10],active: 12.6 µM

# Source: PubChem BioAssay (EPA / NIEHS)
